This note sets out measurements from patent publication US20250177546A1, “ROR1-TARGETED BINDING MOLECULE AND USE THEREOF” (SANYOU BIOPHARMACEUTICALS CO., LTD., priority 2022, published 2025).

“Also recorded” adds a separate entry of the source.

Holding throughout (type): binding
Test [1] concerns the target T1, mouse ROR1 antigen protein MusROR1-His (Mus musculus, UniProt Q9Z139).
T1 construct: MusROR1 ECD AA30-406 (Uniprot ID: Q9Z139); made in house; host or cells: HEK293 (transient transfection, pcDNA3.4)
Description: ELISA cross-reactivity between species (MusROR1-His).

The target in test [2] is T2, antigen protein huROR1-His (Homo sapiens, UniProt Q01973).
T2 construct: huROR1 ECD AA30-406 (Uniprot ID: Q01973); made in house; host or cells: HEK293 (transient transfection, pcDNA3.4)
T2 sequence (Q01973 30-406): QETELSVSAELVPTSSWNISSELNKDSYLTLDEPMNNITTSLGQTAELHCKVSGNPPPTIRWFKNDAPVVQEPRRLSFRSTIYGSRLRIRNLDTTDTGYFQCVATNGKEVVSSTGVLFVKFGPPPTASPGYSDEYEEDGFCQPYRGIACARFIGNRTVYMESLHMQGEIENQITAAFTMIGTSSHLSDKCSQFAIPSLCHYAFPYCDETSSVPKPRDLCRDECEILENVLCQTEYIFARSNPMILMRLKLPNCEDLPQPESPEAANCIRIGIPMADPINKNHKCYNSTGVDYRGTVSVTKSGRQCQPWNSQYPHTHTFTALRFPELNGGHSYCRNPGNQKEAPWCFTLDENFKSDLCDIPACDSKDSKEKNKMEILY
Description: Affinity kinetics (Gator).

Test [3] addresses T3, human ROR2 antigen protein huROR2-His (Homo sapiens, UniProt Q01974).
T3 construct: huROR2 ECD AA34-403 (Uniprot ID: Q01974); made in house; host or cells: HEK293 (transient transfection, pcDNA3.4)
Description: ELISA cross-reactivity between homologous groups (huROR2-His). (An ELISA detects its analyte on a solid surface through an enzyme-linked reagent.)

T1 sequence (Q9Z139 30-406): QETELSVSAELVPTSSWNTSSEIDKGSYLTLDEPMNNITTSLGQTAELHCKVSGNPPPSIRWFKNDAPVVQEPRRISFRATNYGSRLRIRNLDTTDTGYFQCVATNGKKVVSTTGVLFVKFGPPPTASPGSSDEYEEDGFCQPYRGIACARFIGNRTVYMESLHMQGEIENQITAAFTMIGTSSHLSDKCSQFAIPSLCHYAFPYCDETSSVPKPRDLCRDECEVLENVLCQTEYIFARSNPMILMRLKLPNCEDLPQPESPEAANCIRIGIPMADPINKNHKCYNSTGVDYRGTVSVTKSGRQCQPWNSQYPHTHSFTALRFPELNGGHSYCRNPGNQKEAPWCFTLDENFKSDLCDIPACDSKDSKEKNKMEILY
T3 sequence (Q01974 34-403): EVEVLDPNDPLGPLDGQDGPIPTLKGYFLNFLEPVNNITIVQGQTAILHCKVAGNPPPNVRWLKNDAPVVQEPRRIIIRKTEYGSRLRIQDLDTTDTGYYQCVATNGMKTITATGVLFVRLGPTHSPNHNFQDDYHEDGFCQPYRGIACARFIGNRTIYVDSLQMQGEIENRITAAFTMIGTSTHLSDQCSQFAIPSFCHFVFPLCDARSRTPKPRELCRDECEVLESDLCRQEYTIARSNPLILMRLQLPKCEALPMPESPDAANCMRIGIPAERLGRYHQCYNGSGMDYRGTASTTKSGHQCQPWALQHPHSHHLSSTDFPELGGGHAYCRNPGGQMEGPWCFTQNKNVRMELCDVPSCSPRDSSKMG

B1: B32: chimeric anti-ROR1 antibody, murine clone B32; CDRs SEQ ID NO 7-9, 34, 32, 33 (antibody)
heavy: EVKLMESGGGLVKPGGSLKLSCAASGFAFSSYAMSWVRQTPDKRLEWVASINRDVTTYYPDSMKGRFTISRDNARNILYLQMSSLRSEDTAMYYCARGYYYGGGPYWHFDVWGAGTTVTVSS[human IgG1 constant region not listed]
light: DIQITQSPSSMYASLGERVTITCKASQDINSYLTWFQQKPGKSPKTLIYRANRLVDGVPSRFSGSGSGQDYSLTISSLEYEDMGIYYCLQFDEFPYTFGGGTKLEIKRTVAAPSVFIFPPSDEQLKSGTASVVCLLNNFYPREAKVQWKVDNALQSGNSQESVTEQDSKDSTYSLSSTLTLSKADYEKHKVYACEVTHQGLSSPVTKSFNRGEC
B1: the MusROR1-His result in test [1] is “bind to the antigen protein MusROR1-His; also recorded: binding”. In test [2], the “Ka” value was found to be 301000 M⁻¹ s⁻¹, the “Kd” value is 0.000377 s⁻¹ and the “Rmax (nm)” value stood at 0.874 nm. In addition, in test [3], the huROR2-His entry was “no binding”.

B2: C77: chimeric anti-ROR1 antibody, murine clone C77; CDRs SEQ ID NO 20, 21, 12, 31-33 (antibody)
heavy: EVKLVESGGGLVKPGGSLKLSCAASGFSFSNYAMSWVRQTPEKRLEWVASINSGVTTYYPDSVKGRFTVSRDNARNILYLHMTGLRSEDTAIYYCSRGYYYGGSPYWHFDVWGAGTTVTVSS[human IgG1 constant region not listed]
light: DIQMTQSPSSMHASLGERVTITCKASQDINNYVSWFQQKPGKSPKTLIYRANRLVDGVPSRFSGSGSGQDYSFTISSLEYEDMGIYYCLQFDEFPYTFGGGTKLEIKRTVAAPSVFIFPPSDEQLKSGTASVVCLLNNFYPREAKVQWKVDNALQSGNSQESVTEQDSKDSTYSLSSTLTLSKADYEKHKVYACEVTHQGLSSPVTKSFNRGEC
B2: the MusROR1-His result in test [1] is reported as “no binding”. In test [2], the “Ka” value stood at 314000 M⁻¹ s⁻¹, the “Kd” value came to 0.000774 s⁻¹ and the “Rmax (nm)” value is reported as 0.959 nm. For the same molecule, the huROR2-His result in test [3] is recorded as “no binding”.

B3: M71: chimeric anti-ROR1 antibody, murine clone M71; CDRs SEQ ID NO 4, 25, 26, 35, 32, 33 (antibody)
heavy: EVMLVESGGGLVKPGGSLKLSCAASGFTFSRYAMSWVRQTPEKRLEWVASINRGGTTYYPDSVKGRFTISRDNARDILYLQMSSLRSEDTAIYYCARDYYYGSSLYNGMDFWGQGTSVIVSS[human IgG1 constant region not listed]
light: DIQMTQSPSSMYASLGERVTITCKASQDINSYLSWFQQKPGKSPKTLIYRANRLVDGVPSRFSGSGSGQDYSLTISSLESEDMGIYYCLQFDEFPYTFGGGTKLEIKRTVAAPSVFIFPPSDEQLKSGTASVVCLLNNFYPREAKVQWKVDNALQSGNSQESVTEQDSKDSTYSLSSTLTLSKADYEKHKVYACEVTHQGLSSPVTKSFNRGEC
For B3, in test [1], the MusROR1-His entry is “no binding”. In test [2], the “Ka” value stood at 351000 M⁻¹ s⁻¹, the “Kd” value is 0.00054 s⁻¹ and the “Rmax (nm)” value is reported as 0.916 nm. Moreover, the huROR2-His entry in test [3] was “no binding”.

B4: B74: chimeric anti-ROR1 antibody, murine clone B74; CDRs SEQ ID NO 10-12, 35, 32, 36 (antibody)
heavy: EVMLVESGGNLVKPGGSLKLSCAASGFTFSIYAMSWVRQTPEKRLEWVASISGGGTAYYPDSVKGRFTISRDNARNILYLQMSSLRSEDTAIYYCARGYYYGGSPYWHFDVWGAGTTVTVSS[human IgG1 constant region not listed]
light: DIKMTQSPSSMYASLGERVTITCKASQDINSYLSWFQQKPGKSPKTLIYRANRLVDGVPSRFSGSGSGQDYSLTISSLEYEDIGIYYCLQIDEFPYTFGGGTKLEIKRTVAAPSVFIFPPSDEQLKSGTASVVCLLNNFYPREAKVQWKVDNALQSGNSQESVTEQDSKDSTYSLSSTLTLSKADYEKHKVYACEVTHQGLSSPVTKSFNRGEC
For the molecule B4, in test [1], the MusROR1-His entry is recorded as “no binding”. Further, in test [2], the “Ka” value worked out at 323000 M⁻¹ s⁻¹, the “Kd” value was found to be 0.000464 s⁻¹ and the “Rmax (nm)” value is given as 1.080 nm. The huROR2-His result in test [3] is on record as “no binding”.

B5: M78: chimeric anti-ROR1 antibody, murine clone M78; CDRs SEQ ID NO 18, 25, 27, 35, 32, 33 (antibody)
heavy: EVMLVESGGGLVRPGGSLKLSCAASGFTFSSYAMSWVRQSPEKRLEWVASINRGGTTYYPDSVKGRFTISRDNARDILYLQMSSLRSEDTAIYYCARDYYYGSNLYNGMDYWGQGTSVIVSS[human IgG1 constant region not listed]
light: DIKITQSPSSMYASLGERVTITCKASQDINSYLSWFQQKPGKSPKTLIYRANRLVDGVPSRFSGSGSGQDYSLTISSLEYEDMGIYYCLQFDEFPYTFGGGTKLEIKRTVAAPSVFIFPPSDEQLKSGTASVVCLLNNFYPREAKVQWKVDNALQSGNSQESVTEQDSKDSTYSLSSTLTLSKADYEKHKVYACEVTHQGLSSPVTKSFNRGEC
In the case of B5, the MusROR1-His result in test [1] is “no binding”. For the same molecule, in test [2], the “Ka” value was 330000 M⁻¹ s⁻¹, the “Kd” value stood at 0.000614 s⁻¹ and the “Rmax (nm)” value is reported as 0.920 nm. For the same molecule, the huROR2-His result in test [3] was “no binding”.

B6: B39: chimeric anti-ROR1 antibody, murine clone B39; CDRs SEQ ID NO 15-17, 38, 32, 33 (antibody)
heavy: EVKLVESGGGLVKPGGSLKLSCAASGFTFSTYAMSWVRQTPEKRLEWVASISTGASTYYPDSVKGRFTISRDNARNILYLQMSSLRSEDTAMYYCAREETTTAALYYAMDYWGQGTSVTVSS[human IgG1 constant region not listed]
light: DIKITQSPSSMYASLGERVTITCKASQDINNYLSWFQQKPGKSPKTLIYRANRLVDGVPSRFSGSGSGQDYSLTISSLEYEDMGIYYCLQFDEFPYTFGGGTKLEIKRTVAAPSVFIFPPSDEQLKSGTASVVCLLNNFYPREAKVQWKVDNALQSGNSQESVTEQDSKDSTYSLSSTLTLSKADYEKHKVYACEVTHQGLSSPVTKSFNRGEC
As for B6, the MusROR1-His entry in test [1] is “no binding”. For the same molecule, in test [2], the “Ka” value is 304000 M⁻¹ s⁻¹, the “Kd” value came to 0.00135 s⁻¹ and the “Rmax (nm)” value amounted to 1.060 nm. The huROR2-His entry in test [3] is “no binding”.

B7: C38: chimeric anti-ROR1 antibody, murine clone C38; CDRs SEQ ID NO 18, 8, 19, 31-33 (antibody)
heavy: EVMLVESGGGLVRPGGSLKLSCAASGFTFSSYAMSWVRQTPDKRLEWVASINRDVTTYYPDSVKGRFTISRDNARNILYLQMSSLRSEDTAMYYCARDYYYGSSLYYGMDYWGQGTSVTVSS[human IgG1 constant region not listed]
light: DIQMTQSPSSMHASLGERVTITCKASQDINNYVSWFQQKPGKSPKTLIYRANRLVDGVPSRFSGSGSGQDYSFTISSLEYEDMGIYYCLQFDEFPYTFGGGTKLEIKRTVAAPSVFIFPPSDEQLKSGTASVVCLLNNFYPREAKVQWKVDNALQSGNSQESVTEQDSKDSTYSLSSTLTLSKADYEKHKVYACEVTHQGLSSPVTKSFNRGEC
As to B7, the MusROR1-His result in test [1] is given as “bind to the antigen protein MusROR1-His; also recorded: binding”. Further, in test [2], the “Ka” value amounted to 314000 M⁻¹ s⁻¹, the “Kd” value was found to be 0.000422 s⁻¹ and the “Rmax (nm)” value is on record as 0.935 nm. The huROR2-His entry in test [3] is recorded as “no binding”.

B8: B34: chimeric anti-ROR1 antibody, murine clone B34; CDRs SEQ ID NO 4, 13, 14, 35, 32, 37 (antibody)
heavy: EVQLVESGGGLVQPKGSLKLSCAASGFTFSRYAMSWVRQTPEKRLEWVASISTGGSPYYPDSVKGRFTISRDNARNILYLQMSSLKSEDTAMYYCARGYYYNSSPHWYFAVWGAGTSVTVSS[human IgG1 constant region not listed]
light: DIQMTQSPSSLSASLGERVTITCKASQDINSYLSWFQQKPGKSPKTLIYRANRLVDGVPSRFSGSGSGQDYSLTISSLEYEDMGIYYCLQYDEFPYTFGGGTKLEIKRTVAAPSVFIFPPSDEQLKSGTASVVCLLNNFYPREAKVQWKVDNALQSGNSQESVTEQDSKDSTYSLSSTLTLSKADYEKHKVYACEVTHQGLSSPVTKSFNRGEC
Turning to B8, in test [1], the MusROR1-His result is “no binding”. Moreover, in test [2], the “Ka” value was determined as 241000 M⁻¹ s⁻¹, the “Kd” value was determined as 0.000609 s⁻¹ and the “Rmax (nm)” value came to 0.782 nm. Also, the huROR2-His entry in test [3] is “no binding”.

B9: C42: chimeric anti-ROR1 antibody, murine clone C42; CDRs SEQ ID NO 22-24, 39-41 (antibody)
heavy: EVMLVESGGGLVKPGGSLKLSCAASGFTFSNYIMSWVRQTPEKRLEWVATINSGGTNTYYPDSVKGRFTISRDNAKNSLYLQMNSLRSEDTALYYCTRYNGNYVWFAYWGQGTLVTVSA[human IgG1 constant region not listed]
light: DIVLTQSPAIMSASPGEKVTMTCSASSSVSFIYWYQQKPGSSPRLLIYDTSNLASGVPVRFSGSGSGTSYSLTISRMEAEDAATYYCQQWSNYHFTFGSGTKLEIKRTVAAPSVFIFPPSDEQLKSGTASVVCLLNNFYPREAKVQWKVDNALQSGNSQESVTEQDSKDSTYSLSSTLTLSKADYEKHKVYACEVTHQGLSSPVTKSFNRGEC
Take B9: the MusROR1-His result in test [1] was “bind to the antigen protein MusROR1-His; also recorded: binding”. Besides, in test [2], the “Ka” value is 110000 M⁻¹ s⁻¹, the “Kd” value was 0.00325 s⁻¹, the “Rmax (nm)” value is reported as 0.652 nm and the “affinity relative to control antibody 99961.1” value is recorded as “comparable affinity to the control antibody 99961.1”. In addition, the huROR2-His entry in test [3] was “no binding”.
